Experimental data from article PMC9984488.
These are yes or no findings as the source states them, for the method shown. In cells and extracts the contact can be indirect. Some binding calls cover weakened binding; strength is not graded here.

Protein sequences, listed by entry. Tags and fused reporters are not part of them. Lines headed by an entry give the natural chain unless they say otherwise; changes in a name come on top.
UniProt Q92918: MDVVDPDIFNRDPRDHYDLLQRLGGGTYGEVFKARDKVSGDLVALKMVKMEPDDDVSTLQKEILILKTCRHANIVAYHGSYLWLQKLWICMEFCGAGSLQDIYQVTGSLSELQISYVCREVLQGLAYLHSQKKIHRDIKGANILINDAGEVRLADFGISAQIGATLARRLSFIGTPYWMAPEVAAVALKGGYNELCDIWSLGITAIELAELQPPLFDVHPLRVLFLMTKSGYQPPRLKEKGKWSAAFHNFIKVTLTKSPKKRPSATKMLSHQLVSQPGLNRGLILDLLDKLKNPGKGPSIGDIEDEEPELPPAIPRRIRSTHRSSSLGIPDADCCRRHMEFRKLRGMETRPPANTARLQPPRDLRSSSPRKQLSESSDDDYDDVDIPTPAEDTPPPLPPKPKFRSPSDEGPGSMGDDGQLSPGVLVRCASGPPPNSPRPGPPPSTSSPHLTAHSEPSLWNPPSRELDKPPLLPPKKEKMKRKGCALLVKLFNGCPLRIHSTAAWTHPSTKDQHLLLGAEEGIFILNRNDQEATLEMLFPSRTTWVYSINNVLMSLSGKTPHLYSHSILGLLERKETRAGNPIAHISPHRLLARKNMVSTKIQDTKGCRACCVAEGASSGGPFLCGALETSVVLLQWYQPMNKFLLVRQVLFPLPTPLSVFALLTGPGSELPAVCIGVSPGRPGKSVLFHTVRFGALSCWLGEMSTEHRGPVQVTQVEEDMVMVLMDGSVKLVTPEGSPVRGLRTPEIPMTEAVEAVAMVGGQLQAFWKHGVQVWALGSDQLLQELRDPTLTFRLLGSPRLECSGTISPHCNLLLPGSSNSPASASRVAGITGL
UniProt Q9UJU6: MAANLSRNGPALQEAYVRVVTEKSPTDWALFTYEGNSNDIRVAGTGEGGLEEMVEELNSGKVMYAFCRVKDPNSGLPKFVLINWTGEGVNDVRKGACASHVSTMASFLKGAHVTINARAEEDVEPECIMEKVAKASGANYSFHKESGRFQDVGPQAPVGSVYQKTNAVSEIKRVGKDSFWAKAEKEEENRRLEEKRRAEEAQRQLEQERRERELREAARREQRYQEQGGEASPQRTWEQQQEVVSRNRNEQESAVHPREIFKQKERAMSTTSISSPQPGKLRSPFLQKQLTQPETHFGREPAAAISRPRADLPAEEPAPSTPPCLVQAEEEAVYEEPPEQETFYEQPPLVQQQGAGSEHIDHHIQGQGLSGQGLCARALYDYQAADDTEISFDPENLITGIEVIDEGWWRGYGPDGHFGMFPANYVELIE

Tests used:
[1] = target: Flag-MAP4K1 (UniProt Q92918); experiment: co-IP; Flag pull-down: lysates of transfected cells on anti-Flag M2 affinity gel, 4 °C overnight, three washes with lysis buffer; cells stimulated with EGF 100 ng/ml for 10 min
[2] = target: GST-HIP-55AA (S269A/T291A-mutated HIP-55) (human) (UniProt Q9UJU6); experiment: pull-down; GST pull-down from lysates of transfected HEK293A cells; Glutathione-Sepharose 4B, 4 °C 4 h, three washes with lysis buffer (1% NP-40, 150 mM NaCl, 100 mM Hepes); immunoblotting
[3] = target: GST-HIP-55 (human) (UniProt Q9UJU6); experiment: as above

binding [1] | binding [2] | binding [3] | Substance
binds | – | – | GST-HIP-55 (from UniProt Q9UJU6 1-430)
– | binds | binds | Flag-MAP4K1 (from UniProt Q92918 1-833) (enzyme)
